Reference: PubChem BioAssay AID1508624 (National Center for Advancing Translational Sciences (NCATS), 2021)
Screen size: about 48,000 compounds; about 120 (0.25%) were called active. Roughly 4% stayed inconclusive and do not appear here. The call rests on the fitted dose curve; in most records, active means well fitted activation curve with a large enough effect; inconclusive means small, poorly fitted or top-dose-only effect, or another doubt; inactive means no such curve, though single readings can be large or run the other way. The list shows a part of the results.

Assay: Primary qHTS for Identification of Small Molecule Activators of Huntingtin-Antisense Promoter Activity; further: nearly all actives have a fitted effect of over 55% in size
Conditions: HEK293 HTT-AS promoter firefly luciferase reporter, 24 h; series mostly up to 57.5 µM; activity change, positive = activation: at the top concentration
How it was run: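 Firefly luciferase readout (Dual-Glo, 10 min RT) after 24 h, 37 °C compound exposure (final up to 57.5 uM) of HEK293 reporter cells cultured 24 h beforehand; PTC124 at 50 uM final as control inhibitor; activity scaled vehicle 0%, zero RLU -100%.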

| Structure (SMILES) | activity change, positive = activation |
| --- | --- |
| CCc1ccc(-c2nc3ccc(Br)cc3c(C(=O)O)c2C)s1 | inactive: -22.9% |
| COC(=O)c1ccc(NC(=O)c2c(NCc3ccc(C)o3)sc3c2CCCC3)cc1 | inactive: -17.9% |
| CCn1c(C(=O)NCc2cccc(Br)c2)cc2oc3ccccc3c21 | inactive: -31.6% |
| CCc1nnc(NC(=O)c2cc(=O)c3cc(C)c(C)cc3o2)s1 | inactive: 13.6% |
| COc1cc(-c2noc(-c3cc4cc(F)ccc4oc3=O)n2)cc(OC)c1OC | inactive: -9.35% |
| CN1C(=O)C2(c3ccccc31)N(c1ccccc1)C(=O)CS2(=O)=O (stereo not drawn) | inactive: -12.5% |
| Cc1ccc(Cn2cccc2C2=NC(C)(C)CO2)cc1 | inactive: -10.3% |
| COc1ccccc1OC(C)C(=O)NCC1(N2CCOCC2)CCCCC1 (stereo not drawn) | inactive: -19.5% |
| CC1CCN(S(=O)(=O)c2ccc3c(c2)N(CC(=O)NC(C)C)C(=O)CS3)CC1 | inactive: -19.2% |
| Cc1ccc(OC(=O)c2cc(-c3ccc4c(c3)OCCO4)on2)c(C)c1 | inactive: 6.42% |
| CCc1nn(CCCC(=O)NCc2ccccc2Br)c(=O)c2cc3occc3n12 | inactive: -7.01% |
| CCCCOc1ccc(-c2nonc2NC(=O)c2ccco2)cc1 | inactive: -15.1% |
| COc1ccc(NC(=O)CCNS(=O)(=O)c2cccc3nonc23)cc1 | inactive: -5.88% |
| CCCC(=O)N1c2ncnn2C2(CCCCC2)[C@@H]2CCCC[C@@H]21 | inactive: -24.8% |
| Cc1ccc(OCC(=O)NCC2(N3CCN(C)CC3)CCCCC2)cc1C | inactive: -11.1% |
| Cc1ccc(S(=O)(=O)NCCc2nnc3ccc(SCc4ccccc4C)nn23)cc1 | inactive: -31.8% |
| CC(=O)O[C@@]12CO[C@H]1C[C@H](O)[C@@]1(C)C(=O)[C@H](O)C3=C(C)[C@@H](OC(=O)C(O)[C@@H](NC(=O)OC(C)(C)C)c4ccccc4)C[C@@](O)([C@@H](OC(=O)c4ccccc4)[C@@H]21)C3(C)C (stereo partly drawn) | inactive: -28.6% |
| COc1ccc(N2CCN(C(=O)Cn3cnc4nc5c(cc4c3=O)CCCC5)CC2)cc1 | inactive: 26.2% |
| COc1ccc(/C=C\c2onc(C)c2S(=O)(=O)N2CCC(C(=O)Nc3ccccc3OC)CC2)cc1 | inactive: -29.9% |
| COc1ccc(OC)c(NC(=O)CSc2c3c(nc4ccccc24)CCCC3)c1 | inactive: -58.8% |
| CCOc1ccccc1NC(=O)C1CCN(S(=O)(=O)c2c(C)noc2/C=C/c2ccc(C)cc2)CC1 | inactive: -6.79% |
| CCOc1ccc(C(=O)NCCn2cc(SCC(=O)NCCc3ccc(OC)c(OC)c3)c3ccccc32)cc1 | inactive: -38.7% |
| COc1ccccc1OCCn1cc(C(=O)c2cccs2)c2ccccc21 | inactive: -39.7% |
| COc1ccc(Cl)cc1NC(=O)Cn1ccn(Cc2ccc(C)cc2)c(=O)c1=O | inactive: -38.2% |

| Structure (SMILES) | activity change, positive = activation |
| --- | --- |
| O=C(c1cc2c(=O)oc3ccccc3c2s1)N1CCN(c2cccc(Cl)c2)CC1 | inactive: -13.4% |
| COc1cc(/C=C/C(N)=O)cc(OC)c1OC | inactive: 3.91% |
| CCOC(=O)N1CCN(C(=O)CN(c2cccc(Cl)c2C)S(=O)(=O)c2ccc(C)cc2)CC1 | inactive: -38.8% |
| O=C(Nc1ccccc1)c1cccc2c(=O)c3c([nH]c12)CCCC3 | inactive: -14.1% |
| Cc1cccc(-n2c(SCC(N)=O)nc3c(oc4ccccc43)c2=O)c1 | inactive: -12.7% |
| Cc1ccc(CCNC(=O)CN(c2ccc(C)cc2)S(=O)(=O)c2c(C)noc2C)cc1 | inactive: -23.1% |
| COc1ccccc1CNc1ccc(-c2nc(C(C)C)no2)cc1[N+](=O)[O-] | inactive: 3.66% |
| Cc1ccc(C)c(NC(=O)Cn2cc(C(=O)c3ccncc3)c(=O)c3cc(F)ccc32)c1 | inactive: 1.15% |
| CCOc1ccc(CNC(=O)c2cc3oc4ccccc4c3n2C)cc1 | inactive: -25.6% |
| COc1ccc(NC(=O)Cn2cnc3sc(C)c(S(=O)(=O)N4CCN(C)CC4)c3c2=O)cc1OC | inactive: -9.28% |
| Cc1cc(C)c2c(CC(=O)N(Cc3ccc(N(C)C)cc3)Cc3ccco3)coc2c1 | inactive: -32.2% |
| O=C(CSc1nc2c(c(=O)[nH]1)CCC2)Nc1ccccc1F | inactive: -1.31% |
| CN(C)c1ccc(CNc2nc(-c3ccco3)nn2S(=O)(=O)c2ccc3ccccc3c2)cc1 | inactive: 1.15% |
| Cc1ccccc1-c1nc(CNC(=O)Nc2ccccc2)c(C)o1 | inactive: -4.67% |
| Cc1ccccc1OCc1ccc(-c2nc(C#N)c(NCCCN(C)C)o2)o1 | inactive: -10.1% |
| CCOC(=O)C1CCN(C(c2ccccc2OC)c2c(O)cc(C)n(CCOC)c2=O)CC1 (stereo not drawn) | inactive: 1.96% |
| COc1cccc(-c2nc(-c3ccc(-c4ccccc4)nc3OC)no2)c1 | inactive: 19.3% |
| O=C(Nc1ccc(F)cc1)[C@H](Cc1ccccc1)N1Cc2ccccc2C1=O | inactive: -13.2% |
| CN(C(=O)C(Cl)Cl)c1ccc(OC(=O)c2ccco2)cc1 | inactive: -13.5% |
| Cn1nnnc1SCCCNCc1cccc(OCc2ccc(Cl)cc2)c1 | inactive: -21.3% |
| Cc1c(Cl)cccc1-n1ncc(C(=O)Nc2ccc3c(c2)OCCO3)c1C1CCN(C(=O)OC(C)(C)C)CC1 | inactive: -62.9% |
| CCOc1ccc(-c2nc(SC(C(C)=O)C(=O)N(C)C)c3c(=O)n(C)c(=O)n(C)c3n2)cc1 (stereo not drawn) | inactive: -1.84% |
| COc1ccc(-c2nn(C)c3sc(C(=O)Nc4cccc(F)c4)cc23)cc1OC | inactive: -25.8% |
| CO[C@H]1/C=C\O[C@@]2(C)Oc3c(C)c(O)c4c(O)c(c(C=NN5CCN(C6CCCC6)CC5)c(O)c4c3C2=O)NC(=O)C(C)=CC=C[C@H](C)[C@H](O)[C@@H](C)[C@@H](O)[C@@H](C)[C@H](OC(C)=O)[C@H]1C | inactive: -45.7% |

| Structure (SMILES) | activity change, positive = activation |
| --- | --- |
| Cc1ccccc1OCC(=O)OCc1cc(=O)n2ccsc2n1 | inactive: -5.07% |
| Cc1ccc2cc3cc(C(=O)Nc4ccc(F)cc4Cl)oc3nc2c1 | inactive: -15.8% |
| CCN(CC)S(=O)(=O)c1ccc2c(c1)N(CC(=O)N1CCN(c3cccc(C(F)(F)F)c3)CC1)C(=O)CO2 | inactive: -30.4% |
| COCCn1c(SCC(=O)c2cc(C)ccc2C)nc2cc(C(=O)NC3CCCC3)ccc2c1=O | inactive: -11.6% |
| Cc1cc(C)cc(NC(=O)c2cc(S(=O)(=O)N3CCCCCC3)cn2C)c1 | inactive: -12.8% |
| Nc1ccn([C@H]2CC[C@@H](CO)O2)c(=O)n1 | inactive |
| CCN(CC)CCN(C(=O)c1ccco1)c1nc2ccc(Cl)cc2s1 | inactive: 6.85% |
| Cc1ccc(-n2nc3c(N4CCC(C(=O)NC(C)C)CC4)nnc(C)c3c2C)cc1 | inactive: -11.4% |
| CCC1CN(C(=O)N2CCC(C(=O)NCc3ccc(OC)cc3OC)CC2)c2cc(C)ccc2O1 (stereo not drawn) | inactive: -31% |
| CCCN(CCC)C(=O)C1CCCN(S(=O)(=O)c2ccc3c(c2)oc(=O)n3C)C1 (stereo not drawn) | inactive: -19.2% |
| O=C(c1ccccc1)c1ccccc1NC(=O)c1ccccc1C(=O)O | inactive: -5.49% |
| Cc1ccc(-c2nc(CS(=O)CC(=O)N3CCN(c4ccccc4)CC3)c(C)o2)cc1 (stereo not drawn) | inactive: -14.6% |
| COc1ccc(-c2noc(-c3ccc(NC4CCCC4)c([N+](=O)[O-])c3)n2)cc1 | inactive: -8.09% |
| CCN(CC)c1cc(C)c2cc(NC(=O)/C=C/c3ccc(C)cc3)ccc2n1 | inactive: -37.2% |
| CC(=O)c1ccc(N2CCN(C(=O)c3cc4cc5cc(C)ccc5nc4s3)CC2)cc1 | inactive: 4.4% |
| Cc1ccc(C)c(NC(=O)C2CCCN(S(=O)(=O)c3ccc4[nH]c(=O)ccc4c3)C2)c1 (stereo not drawn) | inactive: -17.5% |
| Cc1ccc(C(=O)c2oc3ccccc3c2NC(=O)c2cc(-c3ccccc3)on2)cc1F | inactive: -15.1% |
| COc1ccc(Cl)cc1NC(=O)c1cc2c(s1)-c1ccccc1OC2 | inactive: 4.51% |
| CCc1ccc(OC(C)C(=O)Nc2c(C(=O)c3ccccc3)oc3ccccc23)cc1 (stereo not drawn) | inactive: -1.98% |
| COCCNC(=O)CCc1nc2cccnc2n1Cc1ccc(OC)cc1 | inactive: -7.76% |
| Oc1c(Br)cc(Br)cc1-c1nc2ccccc2s1 | inactive: -16.4% |
| CS(=O)(=O)N(CC(=O)NCCSc1ccccc1)c1cc(C(F)(F)F)ccc1Cl | inactive: -18.3% |
| COc1ccc(OC)c(NC(=O)CSc2cn(CC(=O)N3CCOCC3)c3ccccc23)c1 | inactive: -8.19% |
| COc1cccc(C2C(C(=O)Nc3ccccc3)=C(C)Nc3nc(-c4ccccc4)nn32)c1 (stereo not drawn) | inactive: -21.5% |

| Structure (SMILES) | activity change, positive = activation |
| --- | --- |
| COc1ccc(C2C(C(N)=O)=C(C)Nc3nc(-c4ccccc4Cl)nn32)cc1 (stereo not drawn) | inactive: -2.76% |
| Cc1ccc2oc(C(=O)N(Cc3ccccc3F)C3CCS(=O)(=O)C3)c(C)c2c1 (stereo not drawn) | inactive: -36.8% |
| COc1cccc(NC(=O)CC2C(=O)OCCN2Cc2ccccc2)c1 (stereo not drawn) | inactive: -23.8% |
| Cn1c(=O)[nH]c(=O)c2c1nc1n(CCO)c(-c3ccccc3)cn21 | inactive: 0.642% |
| O=C(CSc1nc2c(cnn2-c2ccc(F)cc2)c(=O)[nH]1)Nc1ccc(Br)cc1 | inactive: -23.7% |
| CCCCOc1ccc(-c2cc3c(=O)n(CC(=O)Nc4ccc(Cl)cc4Cl)ccn3n2)cc1 | inactive: -10.1% |
| Cc1ccc(-c2nn(CC(=O)NC3CCCCC3)c3c2cnc2ccc(F)cc23)cc1C | inactive: -10.3% |
| CCOc1cccc2cc(-c3nnc(Nc4ccc(F)c(Cl)c4)s3)c(=O)oc12 | inactive: -10.3% |
| CC(=O)c1ccc2c(c1)N(CCCN(C)C)c1ccccc1S2 | inactive: -17.3% |
| COc1cccc(CNC(=O)c2cc(=O)[nH]c3ccc(S(=O)(=O)N4CCCCC4)cc23)c1 | inactive: -10.7% |
| CC(C)C(=O)OC1=CN(Cc2ccccc2)S(=O)(=O)c2ccccc21 | inactive: -6.29% |
| COc1ccccc1CNC(=O)c1ccc2c(c1)sc1nc(-c3ccc(F)cc3)cn12 | inactive: -3.19% |
| Cc1cccc(C)c1Nc1c(-c2ccc(Cl)s2)nc2ncccn12 | inactive: -32.2% |
| Cc1ccc(Cl)cc1NC(=O)CN(C)S(=O)(=O)c1ccc2c(c1)n(C)c(=O)c(=O)n2C | inactive: 0.288% |
| O=C(Nc1ccc(SC(F)F)cc1)c1cc(-c2ccc3c(c2)OCCO3)on1 | inactive: -63.8% |
| Cc1noc(Cn2c(=O)c3cc4c(cc3n(CC(=O)Nc3cccc(Cl)c3)c2=O)OCO4)n1 | inactive: -11.3% |
| CCOc1ccc(CNC(=O)c2c(C)nn(-c3ccc(F)cc3)c2-n2cccc2)cc1 | inactive: -25.3% |
| CC(=O)Nc1nonc1-c1nnc(SCC(=O)Nc2ccc(C)cc2C)n1C | inactive: -11.7% |
| COc1ccc(NC(=O)[C@@H](c2ccccc2)N2Cc3ccccc3C2=O)cc1OC | inactive: -2.6% |
| CN(C)CCOC(C)(c1ccccc1)c1ccccn1 (stereo not drawn) | inactive: 0.911% |
| CC1CCc2c(sc(NC(=O)COc3ccccc3)c2C(=O)Nc2ccccc2Cl)C1 (stereo not drawn) | inactive: 16.9% [at 11.5 µM, percent change from vehicle, -100% = no light] |
